Results published in PubChem BioAssay AID588453 (National Center for Advancing Translational Sciences (NCATS), 2011).
About 4,000 (1%) of roughly 390,000 compounds were called active. Inconclusive results, whose numbers are uncertain, are shown with a selection of clear calls. Calls come from the whole dose curve; as a rule, active = well fitted inhibition curve with a large enough effect; inconclusive = small, poorly fitted or top-dose-only effect; inactive = no such curve, though single readings can be large or run the other way. Potencies of inconclusive entries are doubtful fits and often do not repeat.

These compounds were tested against Thioredoxin reductase 1, cytoplasmic (Rattus norvegicus) (UniProt O89049) (assay: qHTS Assay for Inhibitors of Mammalian Selenoprotein Thioredoxin Reductase 1 (TrxR1): qHTS). Conditions: recombinant rTrxR1, NADPH fluorescence consumption, selenite substrate; series mostly up to 114 µM.
Outline: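 Rat TrxR1 (90 nM in the dispensed reagent) was pre-reduced with 400 uM NADPH for 5 min at room temperature, then incubated with compound for 15 min. After 400 uM selenite was added, NADPH fluorescence (Ex 340/Em 450 nm) was followed for 8 min.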
Note: nearly all actives have a fitted effect of over 65% in size.
Potency is the fitted concentration of half-maximal effect; tags give direction and shape of the fitted curve.

Chain of UniProt O89049 (O89049 whole entry, looked up): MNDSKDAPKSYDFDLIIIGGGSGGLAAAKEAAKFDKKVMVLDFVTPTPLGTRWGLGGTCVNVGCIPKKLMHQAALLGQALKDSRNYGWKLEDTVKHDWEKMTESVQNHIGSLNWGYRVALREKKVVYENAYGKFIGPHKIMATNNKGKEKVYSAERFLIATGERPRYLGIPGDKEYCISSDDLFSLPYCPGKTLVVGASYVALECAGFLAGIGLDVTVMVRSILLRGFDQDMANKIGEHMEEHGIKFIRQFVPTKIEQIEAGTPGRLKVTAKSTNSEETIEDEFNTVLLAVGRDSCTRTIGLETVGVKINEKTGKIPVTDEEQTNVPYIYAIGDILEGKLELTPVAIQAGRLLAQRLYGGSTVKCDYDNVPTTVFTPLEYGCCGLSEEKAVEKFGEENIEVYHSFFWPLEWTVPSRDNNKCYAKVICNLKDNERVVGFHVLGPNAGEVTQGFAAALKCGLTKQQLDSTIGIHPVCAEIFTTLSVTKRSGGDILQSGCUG

Row | SMILES | Potency
1 | O=C(O)COc1ccccc1C(Nc1ccccn1)c1cc(Cl)c2cccnc2c1O (stereo unspecified) | inconclusive: 3.55 µM [inhibitor, partial curve, poor fit]
2 | CC1CCCCC1NC(=O)/C(C#N)=C/c1ccccc1F (stereo unspecified) | inconclusive: 56.2 µM [inhibitor, partial curve]
3 | C/C(N)=C(/C#N)C(=O)CSc1nnc(SCc2ccc(Cl)cc2)s1 | inactive
4 | CC1(C)CC(=O)C(C=Nc2cccnc2/N=C/C2=C(O)CC(C)(C)CC2=O)=C(O)C1 | inactive
5 | COC(=O)CN1C(=O)[C@H]2[C@@H](c3ccc(C)o3)N3C(=O)CN(CCO)C(=O)[C@@]3(C)[C@H]2C1=O | inconclusive: 70.8 µM [inhibitor, partial curve, poor fit]
6 | OCCNc1ncnc2oc(-c3ccco3)c(-c3ccco3)c12 | active: 50.1 µM
7 | Cc1ccc2[nH]c(=O)c(CN(Cc3ccco3)C(=O)c3ccncc3)cc2c1 | inconclusive: 44.7 µM [inhibitor, partial curve]
8 | O=C1CC(=O)N2N=C(c3ccc([N+](=O)[O-])cc3)SC2=N1 | inconclusive: 14.1 µM [inhibitor, partial curve, poor fit]
9 | CC(C)CS(=O)(=O)c1oc(-c2ccc(F)cc2)nc1S(=O)(=O)c1ccccc1 | active: 0.316 µM
10 | O=C(NC1CC(=O)N(c2cccc(F)c2)C1)c1ccc(S(=O)(=O)N2CCCC2)cc1 (stereo unspecified) | inactive
11 | O=C(C[n+]1c(Cl)cc(Cl)c2ccccc21)c1ccccc1 | active: 70.8 µM
12 | c1ccc(-n2ncc3c2ncn2nc(-c4ccco4)nc32)cc1 | inconclusive: 20 µM [inhibitor, partial curve]
13 | CCCN1C(C(=O)c2ccccc2)=C(OC(=O)COc2ccccc2)c2ccccc2S1(=O)=O | inconclusive: 17.8 µM [inhibitor, full curve]
14 | CC(C)(C)NS(=O)(=O)c1ccc(CCC(=O)NCc2ccco2)cc1 | inconclusive: 50.1 µM [inhibitor, partial curve, poor fit]
15 | COc1cc2c(=O)c(S(=O)(=O)c3ccc(F)cc3)cn(Cc3ccc(Cl)cc3)c2cc1OC | inactive
16 | Cn1c(=O)n(-c2ccc(Br)cc2F)c(=O)c2sc3ccccc3c21 | inactive
17 | COc1ccc(C2C(C(N)=O)=C(C)Nc3nc(CCCO)nn32)c(OC)c1 (stereo unspecified) | inactive
18 | O=C(C=Cc1ccc2c(c1)OCO2)c1ccccc1 | inactive
19 | CCOC(=O)N1CC=C2C(C#N)=C(N)C(C#N)(C#N)[C@H](c3cccs3)[C@H]2C1 | inconclusive: 12.6 µM [inhibitor, partial curve]
20 | CN(Cc1ccon1)C(=O)CC1C(=O)NCCN1Cc1cccc(F)c1F (stereo unspecified) | inconclusive: 14.1 µM [inhibitor, partial curve]
21 | CCCC12CN3CC(C)(CN(C1)C3c1ccco1)C2=O (stereo unspecified) | inactive
22 | CCOC(=O)/C=C/C(=O)OCC(=O)Nc1ccc(Cl)cn1 | inconclusive: 5.01 µM [inhibitor, full curve, poor fit]
23 | CC(=O)OCC1=C(C(=O)O)N2C(=O)C(NC(=O)c3ccc(COc4c(C)cccc4Cl)o3)C2SC1 (stereo unspecified) | inconclusive: 79.4 µM [inhibitor, partial curve]

Row | SMILES | Potency
24 | COc1cc(/C=C2/C(=O)N(C)C(=S)N2C)ccc1OCc1cccc(F)c1 | inactive
25 | CCN(CC)c1c2c(c(C#N)c3nc4ccccc4n13)CCC2 | inconclusive: 39.8 µM [inhibitor, single point]
26 | Cc1ccc(CN2CCC(CNc3ncnc4onc(-c5ccc(F)cc5)c34)CC2)cc1 | inactive
27 | O=C(OCCCc1cc2ccccc2c(=O)o1)c1ccc(F)cc1 | inconclusive: 56.2 µM [inhibitor, partial curve]
28 | COc1cc(CNCCc2c[nH]c3ccccc23)ccc1OCc1ccc(F)cc1 | inactive
29 | CC(C)OC(=O)c1c(N)sc2c1CCCC2 | inconclusive: 70.8 µM [inhibitor, partial curve]
30 | Nc1scc2c(C(=O)O)nn(-c3ccccc3)c(=O)c12 | inactive
31 | O=C1C2CC=C(Cl)CC2C(=O)N1CC1OCCc2ccccc21 (stereo unspecified) | inconclusive: 89.1 µM [inhibitor, single point]
32 | CCOc1ccc(S(N)(=O)=O)cc1-c1nc2c(C(C)(C)C)nn(C)c2c(=O)[nH]1 | inactive
33 | CC1c2cccn2CCN1S(=O)(=O)c1ccccc1 (stereo unspecified) | inconclusive: 50.1 µM [inhibitor, partial curve, poor fit]
34 | Clc1cccc(Nc2ncnc3ccc(Br)cc23)c1 | inactive
35 | O=C(O)CCNc1ccc(NCCC(=O)O)c2c1C(=O)c1ccccc1C2=O | inactive
36 | N#C/C(=C/c1ccc(N2CCOCC2)o1)c1nc2ccccc2[nH]1 | inactive
37 | CCc1ccc2nc(N3CCN(C(=O)C(C)(C)C)CC3)sc2c1 | inactive
38 | O=C(CCC(=O)N1CCN(c2ccccc2F)CC1)N1CCN(c2ccc(F)cc2)CC1 | inactive
39 | Clc1ncnc2scc(C3COc4ccccc4O3)c12 (stereo unspecified) | inconclusive: 44.7 µM [inhibitor, partial curve, poor fit]
40 | Cc1ccc(OCC(=O)Nc2cc(S(=O)(=O)N3CCOCC3)ccc2Cl)c([N+](=O)[O-])n1 | inconclusive: 89.1 µM [inhibitor, single point]
41 | O=C(CCC(=O)N1CCN(Cc2ccccc2)CC1)Nc1nnc(C2CCCCC2)s1 | inconclusive: 89.1 µM [inhibitor, single point]
42 | COCCNC(=O)C(C)OC(=O)c1cc2occc2n1C (stereo unspecified) | inconclusive: 2.82 µM [inhibitor, full curve, poor fit]
43 | CN1C(=O)c2ccccc2Sc2ccc(NC(=O)N3CCN(c4ccccc4F)CC3)cc21 | inconclusive: 79.4 µM [inhibitor, single point]
44 | CCCCN(CCCC)C(=O)CCS(=O)(=O)c1ccc2c(c1)n(C)c(=O)c(=O)n2C | inconclusive: 50.1 µM [inhibitor, partial curve, poor fit]
45 | COc1ccc(/C=C(/C(=O)c2cccs2)N2C=CC=CC2=C(C#N)C#N)cc1 | active: 0.112 µM
46 | CCCc1[nH]nc2c1C(Cc1ccccc1)C(C#N)=C(N)O2 (stereo unspecified) | inconclusive: 12.6 µM [inhibitor, full curve]
